In PMC3620054, “Lsb1 Is a Negative Regulator of Las17 Dependent Actin Polymerization Involved in Endocytosis” (PLoS ONE, 2013):
Where two headings read alike, the source gives them in different places. Results are given in words; binding and its absence hold for the method and conditions named. In cells and extracts the contact can be indirect. Some entries that bind do so weakly or less than the wild type. Tags and fused reporters may be left off the sequences shown.

The chains behind the UniProt entries cited, without tags or fusion partners.
UniProt Q12446: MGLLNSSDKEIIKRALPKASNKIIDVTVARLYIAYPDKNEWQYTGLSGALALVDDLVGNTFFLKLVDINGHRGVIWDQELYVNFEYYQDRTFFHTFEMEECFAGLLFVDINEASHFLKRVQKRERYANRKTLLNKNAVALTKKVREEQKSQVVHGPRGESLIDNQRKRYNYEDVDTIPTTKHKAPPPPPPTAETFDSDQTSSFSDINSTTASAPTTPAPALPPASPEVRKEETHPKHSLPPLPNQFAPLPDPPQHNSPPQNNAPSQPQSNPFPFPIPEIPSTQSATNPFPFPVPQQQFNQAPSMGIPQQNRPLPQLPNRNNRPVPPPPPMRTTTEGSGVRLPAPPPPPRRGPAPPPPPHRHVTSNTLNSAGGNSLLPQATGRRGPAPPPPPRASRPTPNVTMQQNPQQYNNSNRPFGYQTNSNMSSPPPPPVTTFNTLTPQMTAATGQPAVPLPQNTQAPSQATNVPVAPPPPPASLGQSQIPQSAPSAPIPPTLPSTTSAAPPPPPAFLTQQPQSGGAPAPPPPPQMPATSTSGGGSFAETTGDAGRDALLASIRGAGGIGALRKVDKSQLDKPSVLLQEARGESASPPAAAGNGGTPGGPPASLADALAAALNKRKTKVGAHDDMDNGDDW

What was measured:
[1] = biological target: T1, GST-Lsb1 (S. cerevisiae) (UniProt P53281); experiment: pull-down; GST-Lsb1 or GST-Lsb2 on glutathione Sepharose beads incubated with total protein extract from Las17-CFP expressing cells, 1 h at 4°C, washed with PBS+500 mM NaCl, Western blot with anti-GFP; only the target purified
T1 sequence: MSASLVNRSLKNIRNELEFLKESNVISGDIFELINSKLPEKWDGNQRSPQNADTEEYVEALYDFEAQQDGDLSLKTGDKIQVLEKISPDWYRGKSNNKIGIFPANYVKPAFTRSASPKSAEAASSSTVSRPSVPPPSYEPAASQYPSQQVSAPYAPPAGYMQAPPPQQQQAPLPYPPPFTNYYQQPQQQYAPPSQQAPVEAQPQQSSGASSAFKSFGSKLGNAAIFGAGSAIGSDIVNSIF

[2] = biological target: T2, GST-Lsb2 (S. cerevisiae) (UniProt Q06449); experiment: as above
T2 sequence: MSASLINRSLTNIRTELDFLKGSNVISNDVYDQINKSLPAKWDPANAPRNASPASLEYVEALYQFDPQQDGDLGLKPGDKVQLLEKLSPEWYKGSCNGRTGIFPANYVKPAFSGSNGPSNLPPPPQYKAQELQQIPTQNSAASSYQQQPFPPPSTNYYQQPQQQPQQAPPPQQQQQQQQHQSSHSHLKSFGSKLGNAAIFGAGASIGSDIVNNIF

[3] = biological target: T3, GST-SH3-Lsb1 (S. cerevisiae) (UniProt P53281); experiment: pull-down; GST fusions coated on glutathione-Sepharose beads incubated with a total yeast protein extract containing the GFP-tagged protein; fluorescent halo around the beads seen by fluorescence microscopy; only the target purified
T3 sequence: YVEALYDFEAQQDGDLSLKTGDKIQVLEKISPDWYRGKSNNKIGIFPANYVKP

[4] = biological target: T4, GST-SH3-Lsb2 (S. cerevisiae) (UniProt Q06449); experiment: as above
T4 sequence: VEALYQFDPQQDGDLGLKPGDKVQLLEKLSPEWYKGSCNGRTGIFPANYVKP

[5] = biological target: T5, Lsb1-HA (S. cerevisiae) (UniProt P53281); experiment: co-IP; Lsb1-HA or Lsb2-HA expressed in Lsb1-GFP or Lsb2-GFP strains; immunoprecipitated using γ-bind Sepharose beads and anti-HA antibodies; Western blot with anti-GFP and anti-HA
T5 sequence: T1 sequence

[6] = biological target: T6, Lsb2-HA (S. cerevisiae) (UniProt Q06449); experiment: as above
T6 sequence: T2 sequence

[7] = biological target: T3, GST-SH3-Lsb1 (S. cerevisiae); experiment: pull-down; GST fusions coated on glutathione-Sepharose beads incubated with a total yeast protein extract containing the GFP-tagged protein; fluorescent halo around the beads seen by fluorescence microscopy; only the target purified; remark: listed apart in the source
[8] = biological target: T4, GST-SH3-Lsb2 (S. cerevisiae); experiment: as above; remark: listed apart in the source
[9] = biological target: Las17-CFP (S. cerevisiae) (UniProt Q12446); experiment: co-IP; extract of Las17-CFP cells expressing Lsb1-HA or Lsb2-HA; γ-bind Sepharose beads with rabbit anti-GFP serum, 2 mg total extract overnight at 4°C; lysis buffer 20 mM Tris pH 7.5, 100 mM NaCl, 5 mM EDTA, 1% Triton-X; Western blot with anti-HA, anti-GFP and anti-Pgk1

Las17-CFP (from UniProt Q12446 1-633) was tested, and the binding [1] was “binds” and the binding [2] was “binds”.

With Las17-GFP (from UniProt Q12446 1-633) the binding [3] was “binds” and the binding [4] was “binds”.

B1: Lsb1-GFP (protein, UniProt P53281 1-241)
chain: T1 sequence
B1 was tested, and the binding [5] was “binds” and the binding [6] was “binds”.

B2: Lsb2-GFP (protein, UniProt Q06449 1-215)
chain: T2 sequence
B2 was tested, and the binding [5] was “binds” and the binding [6] was “binds”.

B3: Abp1-GFP (protein, UniProt P15891 1-592)
chain: MALEPIDYTTHSREIDAEYLKIVRGSDPDTTWLIISPNAKKEYEPESTGSSFHDFLQLFDETKVQYGLARVSPPGSDVEKIIIIGWCPDSAPLKTRASFAANFAAVANNLFKGYHVQVTARDEDDLDENELLMKISNAAGARYSIQTSSKQQGKASTPPVKKSFTPSKSPAPVSKKEPVKTPSPAPAAKISSRVNDNNDDDDWNEPELKERDFDQAPLKPNQSSYKPIGKIDLQKVIAEEKAKEDPRLVQKPTAAGSKIDPSSDIANLKNESKLKRDSEFNSFLGTTKPPSMTESSLKNDDDKVIKGFRNEKSPAQLWAERKAKQNSGNAETKAEAPKPEVPEDEPEGEPDVKDLKSKFEGLAASEKEEEEMENKFAPPPKKSEPTIISPKPFSKPQEPVKAEEAEQPKTDYKKIGNPLPGMHIEADNEEEPEENDDDWDDDEDEAAQPPLPSRNVASGAPVQKEEPEQEEIAPSLPSRNSIPAPKQEEAPEQAPEEEIEEEAEEAAPQLPSRSSAAPPPPPRRATPEKKPKENPWATAEYDYDAAEDNELTFVENDKIINIEFVDDDWWLGELEKDGSKGLFPSNYVSLGN
With B3 the binding [7] was “binds” and the binding [8] was “binds”.

B4: Lsb1-HA (protein, UniProt P53281 1-241)
chain: T1 sequence
For B4, the binding [9] was “binds”.

B5: Lsb2-HA (protein, UniProt Q06449 1-215)
chain: T2 sequence
For B5, the binding [9] was “binds”.

B6: ubiquitinated Lsb2-HA (protein, UniProt Q06449 1-215)
chain: T2 sequence
modifications: ubiquitinated in vivo (sites not given)
B6 was tested, and the binding [9] was “binds”.

B7: phosphoglycerate kinase Pgk1 (protein, UniProt P00560 1-416)
chain: MSLSSKLSVQDLDLKDKRVFIRVDFNVPLDGKKITSNQRIVAALPTIKYVLEHHPRYVVLASHLGRPNGERNEKYSLAPVAKELQSLLGKDVTFLNDCVGPEVEAAVKASAPGSVILLENLRYHIEEEGSRKVDGQKVKASKEDVQKFRHELSSLADVYINDAFGTAHRAHSSMVGFDLPQRAAGFLLEKELKYFGKALENPTRPFLAILGGAKVADKIQLIDNLLDKVDSIIIGGGMAFTFKKVLENTEIGDSIFDKAGAEIVPKLMEKAKAKGVEVVLPVDFIIADAFSADANTKTVTDKEGIPAGWQGLDNGPESRKLFAATVAKAKTIVWNGPPGVFEFEKFAAGTKALLDEVVKSSAAGNTVIIGGGDTATVAKKYGVTDKISHVSTGGGASLELLEGKELPGVAFLSEKK
In the case of B7, the binding [9] is reported as “no binding”.

B8: Sla1-GFP (protein, UniProt P32790 1-1244)
chain: MTVFLGIYRAVYAYEPQTPEELAIQEDDLLYLLQKSDIDDWWTVKKRVIGSDSEEPVGLVPSTYIEEAPVLKKVRAIYDYEQVQNADEELTFHENDVFDVFDDKDADWLLVKSTVSNEFGFIPGNYVEPENGSTSKQEQAPAAAEAPAATPAAAPASAAVLPTNFLPPPQHNDRARMMQSKEDQAPDEDEEGPPPAMPARPTATTETTDATAAAVRSRTRLSYSDNDNDDEEDDYYYNSNSNNVGNHEYNTEYHSWNVTEIEGRKKKKAKLSIGNNKINFIPQKGTPHEWSIDKLVSYDNEKKHMFLEFVDPYRSLELHTGNTTTCEEIMNIIGEYKGASRDPGLREVEMASKSKKRGIVQYDFMAESQDELTIKSGDKVYILDDKKSKDWWMCQLVDSGKSGLVPAQFIEPVRDKKHTESTASGIIKSIKKNFTKSPSRSRSRSRSKSNANASWKDDELQNDVVGSAAGKRSRKSSLSSHKKNSSATKDFPNPKKSRLWVDRSGTFKVDAEFIGCAKGKIHLHKANGVKIAVAADKLSNEDLAYVEKITGFSLEKFKANDGSSSRGTDSRDSERERRRRLKEQEEKERDRRLKERELYELKKARELLDEERSRLQEKELPPIKPPRPTSTTSVPNTTSVPPAESSNNNNSSNKYDWFEFFLNCGVDVSNCQRYTINFDREQLTEDMMPDINNSMLRTLGLREGDIVRVMKHLDKKFGRENIASIPTNATGNMFSQPDGSLNVATSPETSLPQQLLPQTTSPAQTAPSTSAETDDAWTVKPASKSESNLLSKKSEFTGSMQDLLDLQPLEPKKAAASTPEPNLKDLEPVKTGGTTVPAAPVSSAPVSSAPAPLDPFKTGGNNILPLSTGFVMMPMITGGDMLPMQRTGGFVVPQTTFGMQSQVTGGILPVQKTGNGLIPISNTGGAMMPQTTFGAAATVLPLQKTGGGLIPIATTGGAQFPQTSFNVQGQQQLPTGSILPVQKTANGLISANTGVSMPTVQRTGGTMIPQTSFGVSQQLTGGAMMTQPQNTGSAMMPQTSFNAVPQITGGAMMPQTSFNALPQVTGGAMMPLQRTGGALNTFNTGGAMIPQTSFSSQAQNTGGFRPQSQFGLTLQKTGGIAPLNQNQFTGGAMNTLSTGGVLQQQQPQTMNTFNTGGVMQELQMMTTFNTGGAMQQPQMMNTFNTDGIMQQPQMMNTFNTGGAMQQPQQQALQNQPTGFGFGNGPQQSRQANIFNATASNPFGF
B8 was tested, and the binding [7] was “no binding” and the binding [8] was “no binding”.
